Data as given in the supplement of paper PMC10126150.
Sequences with one replicate were seen in a single cluster, so their values are uncertain.

Test system: ATP
Assay: switch fluorescence ratio, 500 uM ATP over buffer (Cy3 cluster intensity, sum of 5 cycles each) (fold (ratio)); higher = stronger signal-on switching upon ATP binding; sequences stand for … in TCGTCGGCAGCGTCAGATGTGTATAAGAGACAGTTTTTTTTTTTTTTTTTTTTTTTTT…TC
Details: aptamer strand: ATP DNA aptamer (quencher-CACCTGGGGGAGTATTGCGGAGGAAGG + anchor), 100 nM annealed; ATP concentration: 500 uM; one replicate
In short: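 Per cluster, summed Cy3 intensity from the target cycles was divided by that from the buffer cycles to give the fluorescence ratio, then averaged per switch-domain sequence. Clusters outside 100-1000 RFU were excluded. The Cy3-labelled switching-strand clusters, on a modified Illumina MiSeq flow-cell, were annealed to 100 nM quencher-labelled ATP aptamer and imaged in selection buffer, then after 15 min with 500 uM ATP at 22 °C, for five cycles with NaOH stripping and re-annealing between them.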
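Also: ATP exposure 15 min at 22 °C before imaging.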

Sequence	switch fluorescence ratio
ACCGTGGTAA	0.962
CTCTTATCTG	0.997
AATGTACGGA	1.11
CTTATACCGC	1.12
AGGACCCCCA	1.03
TATCTACCGG	0.98
TATTTGA	0.99
GATGGTCAGT	1.01
TTAGATTATA	0.996
AAACGCTACT	1.75
AATGTTCGG	0.973
AATGGGGGC	0.977
GGCACATCAC	1.27
ACCCGAAGGA	0.984
TGTCGTTAGG	1
GGCTGATTCG	0.992
TAAAAGCGT	0.999
GGATTCCTGT	0.992
ACCTGAATGC	1.11
GCTAAAAATA	0.995
ATAAAGGGGC	0.984
CGTTCTAAGA	1.04
TGATGTTTA	0.929
GGATGAGAG	0.979
CATGCCGCTG	1.07
AAGTGCATTG	1.01

Sequence	switch fluorescence ratio
TTTCGAGATG	1.03
CTTAGTTGAG	0.971
TCAGGACAA	1.02
GATGATTCTT	1.03
ATGTTAGTCA	1.01
TGACAGCGAG	1.02
GGGGTCAAGA	0.936
GTGCACTT	1.03
GATTTCCCTA	0.983
AAAATAACAT	0.966
ATAGTGTGAT	0.961
CATGATCTGA	0.972
CGTCTTTATC	1.02
AGGGCAGTTT	1.02
GTACGGAAAA	1.01
GGGGTTGACT	0.979
AAGCAGTTCT	1.02
GTAAGCGATT	1
AAATAAAGGA	1.01
AAGAACATGA	1.02
AAGAGATAGA	0.973
AGTTATAGTA	0.999
GATACTGGTT	1.02
CCACTGAAG	1
AGTCTGCTAA	0.974
GCAGCAGCG	1.02

Sequence	switch fluorescence ratio
GTCGAAAATG	1.05
AAAATGCGAA	1.08
GTCTCAAGCA	1.04
TCGAGCACCG	1.02
TCAGCATCTT	0.948
CTAGCATCCT	1.04
TCCCTGAA	1.04
TGGGAATGTC	1.11
TATTAAACTG	1.2
GGTTGTGTGC	1.08
CGCACTGTAT	1.16
AATAAACTAC	1.05
TAACCGGGTG	3.56
TTACCGGTCT	1.05
TCAGCCCTTT	0.995
AGAATCCATT	0.967
CCCTGTAGTC	1.14
ACTGTGGGTT	1.03
AGCAAGTTGA	1
AGGGTTCGAA	1.06
GCGCTGAGAT	0.985
AGATGCCCGG	0.995
ACCATCTTGG	0.98
CGGAGTGGAT	1.11
AATGGTTGAT	0.975
ACATATGTGC	0.988

Sequence	switch fluorescence ratio
ACGTTTCGGG	1
ATGGCTTCAA	1.04
GCCTGCGCGC	1.18
TGCTCGATTG	0.999
GTTGACGATC	1.02
ACTTCGGCAA	4.03
TGAAGGGCAT	0.94
GTTAATATTG	0.979
ACTGGATGTG	0.98
GCTGTCGATG	1.03
AAGCACCAAA	1.22
TACGGCTGTC	1.09
ACGGTTGGC	1.01
GTCGGGTGCC	0.987
TGACAGAATT	1.05
ATATGGGTGT	1.02
GATTAGATTT	0.98
CACTAGGTCA	0.95
GCAATTTCGA	1.23
CCAGGCCCGT	0.99
CAGTTCTCGC	0.972
ACCTTCAGTT	1.05
TTATTGATAA	0.99
CGTTATACGC	1.09
CGTTTTGAGT	0.983
TGCGAGAAGC	0.989

Sequence	switch fluorescence ratio
TAGGGCGCTC	1
CTGCTCAATC	2.18
GGTGTTTAAC	0.971
AAAGCTAAGG	0.99
CGTTCGATCT	0.994
TTCGTGATTC	1.22
TAAGTGAAGT	0.965
ATCGGTAGAT	0.91
CGGGCAATTG	1.22
CTGTGCCCT	1.01
TCTAGATCTA	0.966
GTTGAGCAGG	1.1
AATCAATCCG	0.997
GCAGTACGGA	1.97
ACCTTACATC	1.28
GGAGAGGCAT	1.01
TCATAATTAC	1.11
ATGCATGAGC	1.04
GAACCACTGT	1.01
ATCAACTGGT	0.983
TCAACCAGTT	1.02
TAGTGGACTG	0.975
CGTAGAGTTG	1
GGAGTGGATT	0.993
GGTGGTGGT	0.991
AGGGTGGGTC	0.971

Sequence	switch fluorescence ratio
CATTTATCAA	1.02
CTCCGGGGG	1
CCTTAGAGGC	1.01
ATGATCACCA	1.03
CCCCCATTTT	1.04
TATATTAG	1
TCTTCTGCCG	0.972
CCCTGGGGTG	3.26
CGACGGTTA	1.16
ATCGAAGCGA	1.14
AGGCCAACAA	0.997
TCGGGGTCG	1.06
GTAAACTATG	0.963
ATGTATACAC	1.02
TGAAACTCCA	1.04
CGCTAACTGT	1.06
GAACAGCCAG	1.02
TTGTGGGCCC	1.01
TGTTCCTGAT	0.973
GGGAGGGTCA	1.07
ATTAATGATG	1.02
AATGTTAGG	1.04
ATTGCTTCT	1.01
ATATATATAA	1.01
